{"source": "paper PMC12040169", "about": "(PLOS Biology, 2025)", "note": "The list shows a part of the results."}
{"system": "T1, C. trachomatis L2/434/Bu expressing GFP (CTL2-GFP)", "T1 construct": "L2/434/Bu GFP intracellular growth in HeLa cells", "parameters": "species or system HeLa; C. trachomatis total inclusion area by high-content imaging, normalised to DMSO", "details": "total inclusion area; 28.5 h, 10 µM; inhibitor", "method_in_brief": "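Following bulk GFP and resorufin fluorescence reads, infected cells were fixed, Hoechst-stained and imaged on a high-content platform. Inclusion total area and number per well served as growth proxies; nuclei counts indicated host viability. MICs were derived as for the fluorescence assay.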"}
{"smiles": "O=C(NCc1ccc2c(c1)CCN2C(=O)c1ccncc1)c1cccc(F)c1", "note": "[CBK288586]", "% of control remaining": 116.213}
{"smiles": "COc1ccc(CNC(=O)NC(=O)C2CCN(S(C)(=O)=O)CC2)c(OC)c1", "note": "[CBK034861]", "% of control remaining": 93.4414}
{"smiles": "Cc1ccc2nc(-c3ccc(NC(=O)CSc4nc(-c5ccccc5)cc(=O)[nH]4)cc3)sc2c1", "note": "[CBK265861]", "% of control remaining": 132.964}
{"smiles": "Cc1nc(C)n(CC2CCCN(Cc3cn4ccccc4c3C#N)C2)n1", "note": "(stereo not drawn) [CBK306103]", "% of control remaining": 74.1709}
{"smiles": "CC(=O)N1CCC2(C/C=C/C[C@H]3CN(C(=O)CC4CCOCC4)CC[C@H]3NC(=O)CNC2=O)CC1", "note": "[CBK292109]", "% of control remaining": 109.134}
{"smiles": "O=C(CSc1nc2cc(Cl)ccc2[nH]1)Nc1ccccc1F", "note": "[CBK269916]", "% of control remaining": 75.8288}
{"smiles": "CCNS(=O)(=O)C1CCN(c2cc(C#N)ccc2C(F)(F)F)C1", "note": "(stereo not drawn) [CBK305402]", "% of control remaining": 95.7806}
{"smiles": "O=S(=O)(Nc1ccc2[nH]ccc2c1)c1c(Cl)cc(C(F)(F)F)cc1Cl", "note": "[CBK156328]", "% of control remaining": 89.2467}
{"smiles": "COc1ccc(CCC(=O)Nc2cccc(OCCC3CCNCC3)c2)cc1OC", "note": "[CBK138350]", "% of control remaining": 97.764}
{"smiles": "O=C(Nc1ccc(Br)cc1C(=O)O)c1ccc2c(c1)C(=O)N(Cc1cccnc1)C2=O", "note": "[CBK266776]", "% of control remaining": 95.8326}
{"smiles": "Cn1c(CN2CCOCC2)nnc1SCC(=O)Nc1cccc(F)c1", "note": "[CBK269629]", "% of control remaining": 95.7846}
{"smiles": "O=C(NCC(=O)N(c1cccc(C(F)(F)F)c1)C(C(=O)NCc1ccco1)c1ccccc1F)c1ccco1", "note": "(stereo not drawn) [CBK084740]", "% of control remaining": 89.7288}
{"smiles": "COc1ccccc1CN(CC1CCNCC1)C(=O)NC(c1ccccc1)c1ccccc1", "note": "[CBK049741]", "% of control remaining": 90.9734}
{"smiles": "O=C1c2ccc(Oc3ccc4c(c3)C(=O)N(c3cccnc3)C4=O)cc2C(=O)N1c1cccnc1", "note": "[CBK262773]", "% of control remaining": 96.7871}
{"smiles": "Cc1nc(C)c(C(=O)Nc2nn(C)c3cccc(N4CCOCC4)c23)o1", "note": "[CBK306534]", "% of control remaining": 70.1495}
{"smiles": "O=C(c1cccnc1)C1CCN(C(=O)C2CCCCC2)CC1", "note": "[CBK283817]", "% of control remaining": 102.649}
{"smiles": "CCOC(=O)C(Cc1ccccc1)C(=O)Nc1ccc(Cl)cc1", "note": "(stereo not drawn) [CBK261463]", "% of control remaining": 101.878}
{"smiles": "COc1ccc2[nH]cc(CC(=O)Nc3nc4c(OC)cccc4s3)c2c1", "note": "[CBK149279]", "% of control remaining": 105.726}
{"smiles": "CCn1c(SCc2cccnc2)nc2c(c1=O)SC(C)C2", "note": "(stereo not drawn) [CBK287643]", "% of control remaining": 98.1881}
{"smiles": "O=C(c1cnc(-c2ccncc2)s1)N(CC(F)(F)F)C1CCC1", "note": "[CBK304119]", "% of control remaining": 28.0495}
{"smiles": "Cc1cc(=O)n2c(C(=O)Nc3cccc(C(=O)O)c3)c(C(=O)Nc3cccc(C)c3C)sc2n1", "note": "[CBK297545]", "% of control remaining": 91.0746}
{"smiles": "CN(C)CCN(C)Cc1ccc2c(c1)Cc1ccccc1-2", "note": "[CBK261856]", "% of control remaining": 99.823}
{"smiles": "CN(C)CC(=O)N1CCc2nc(-c3ccccc3F)sc2C1", "note": "[CBK281918]", "% of control remaining": 102.828}
{"smiles": "O=C(O)c1cccc(CSc2nc3ccccc3o2)c1", "note": "[CBK270193]", "% of control remaining": 100.486}
{"smiles": "C=CCN1C(=O)CC2(C1=O)C(=O)N(Cc1ccc(S(=O)(=O)N(CC)CC)cc1)c1ccc(Cl)cc12", "note": "(stereo not drawn) [CBK075412]", "% of control remaining": 72.3911}
{"smiles": "Cc1cc(C(=O)CSc2nnc(C3CC3)[nH]2)c(C)n1-c1cccc(C(F)(F)F)c1", "note": "[CBK295310]", "% of control remaining": 99.6572}
{"smiles": "CC(C)c1ccc(C(C)NC(=O)c2cccn(CC(=O)NC3CCCC3)c2=O)cc1", "note": "(stereo not drawn) [CBK286018]", "% of control remaining": 117.616}
{"smiles": "COc1ccc(NS(=O)(=O)c2cc(C(=O)O)c(Cl)cc2Cl)cc1", "note": "[CBK095077]", "% of control remaining": 111.016}
{"smiles": "CCC(Oc1cccc(Cl)c1)C(=O)NN1CCN(C)CC1", "note": "(stereo not drawn) [CBK268135]", "% of control remaining": 95.8702}
{"smiles": "N#CCCN(C1CCCCC1)S(=O)(=O)c1ccc(-c2ccc([N+](=O)[O-])cc2)cc1", "note": "[CBK261382]", "% of control remaining": 87.4778}
{"smiles": "COc1ccc2[nH]cc(CCNC(=O)N(C)C3CCN(C)C3)c2c1", "note": "(stereo not drawn) [CBK156004]", "% of control remaining": 89.0917}
{"smiles": "COc1ccc(OC)c(-c2cc(C(=O)O)c(C)o2)c1", "note": "[CBK049343]", "% of control remaining": 67.2771}
{"smiles": "CC1(C)OCC2(CCN(C(C)(C)C)CC2)O1", "note": "[CBK038298]", "% of control remaining": 74.12}
{"smiles": "Cc1ccc(OCc2nnc(SCC(=O)c3cccc([N+](=O)[O-])c3)n2C)cc1", "note": "[CBK268580]", "% of control remaining": 117.146}
{"smiles": "COc1ccc(Cn2c(=O)[nH]n(-c3ccccc3)c2=O)cc1F", "note": "[CBK122772]", "% of control remaining": 104.617}
{"smiles": "O=C(Nc1cccc2cccnc12)c1cccc2ccccc12", "note": "[CBK261473]", "% of control remaining": 78.7778}
{"smiles": "FC(F)(F)c1cccc(OCc2ccc(-c3ccccc3)cc2)n1", "note": "[CBK115836]", "% of control remaining": 106.666}
{"smiles": "O=C1N[C@H]2CCCN(C(=O)Cn3cccnc3=O)[C@H]2CCCCCOc2ccccc21", "note": "[CBK292096]", "% of control remaining": 132.393}
{"smiles": "COc1ccc(-c2ccc(/C=N/N=C3\\NC(=O)C(CC(=O)O)S3)o2)c([N+](=O)[O-])c1", "note": "(stereo not drawn) [CBK264516]", "% of control remaining": 98.1116}
{"smiles": "c1ccc2c(Sc3cc(N4CCCC4)ncn3)cccc2c1", "note": "[CBK089538]", "% of control remaining": 105.921}
{"smiles": "CNC(=O)CSc1nc2ccccc2nc1NC(C)C", "note": "[CBK107171]", "% of control remaining": 110.68}
{"smiles": "O=C(O)CN1C(=O)c2ccc(C(=O)c3ccc4c(c3)C(=O)N(CC(=O)O)C4=O)cc2C1=O", "note": "[CBK262166]", "% of control remaining": 98.8028}
{"smiles": "O=C(c1ccc(-c2cnc3[nH]c(=O)n(Cc4ccccn4)c3n2)cc1)N1CCOCC1", "note": "[CBK064413]", "% of control remaining": 93.5769}
{"smiles": "CC(=O)Nc1cccc(NC(=O)N2CCCC(CO)C2)c1", "note": "(stereo not drawn) [CBK156049]", "% of control remaining": 93.2521}
{"smiles": "Cc1nn(C)c(N2CCNCC2)c1NC(=O)Cc1c[nH]c2ccccc12", "note": "[CBK050256T]", "% of control remaining": 100.498}
{"smiles": "O=C(N/N=C/c1ccc(N2N=C(c3ccc(Cl)cc3)CC2c2ccc(Cl)cc2)cc1)c1cccnc1", "note": "(stereo not drawn) [CBK262494]", "% of control remaining": 59.9325}
{"smiles": "C=CCC(NCc1ccccc1)c1ccc(C(=O)O)o1", "note": "(stereo not drawn) [CBK286591]", "% of control remaining": 62.3483}
{"smiles": "O=C(Cc1ccccc1[N+](=O)[O-])Nc1ccc(S(=O)(=O)N2CCCC2)cc1", "note": "[CBK265292]", "% of control remaining": 93.3976}
